The source of these data is article PMC12820563, “FoxP3 forms a head-to-head dimer in vivo and stabilizes its multimerization on adjacent microsatellites”.

Some of the results follow.

The assay has as its target T1, MBP-FoxP1dN (Mus musculus, UniProt P58462 326-579).
T1 sequence: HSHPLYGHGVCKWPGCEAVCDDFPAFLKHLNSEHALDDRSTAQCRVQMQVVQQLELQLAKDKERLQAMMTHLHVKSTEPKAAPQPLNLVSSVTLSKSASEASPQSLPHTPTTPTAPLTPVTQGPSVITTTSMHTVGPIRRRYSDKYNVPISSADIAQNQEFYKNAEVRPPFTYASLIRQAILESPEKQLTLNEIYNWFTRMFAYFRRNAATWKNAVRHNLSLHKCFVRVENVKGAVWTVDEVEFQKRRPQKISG
Put plainly: PD-seq (MBP pull-down with sequencing); 20 mM Tris-HCl pH 7.5, 100 mM NaCl, 1.5 mM MgCl2, 0.4 uM protein, 0.1 uM dsDNA library, 30 min, room temperature, amylose pull-down; high values mean tight binding. Particulars: protein: recombinant; tags: His6-MBP; chain copies: 2; dsDNA, one strand shown. The procedure, abridged:
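His6-MBP-tagged mouse FoxP3 or FoxP1 fragment lacking the N-terminus, expressed in E. coli, was mixed at 0.4 µM with 0.1 µM Klenow-filled double-stranded degenerate DNA library. Incubation was 30 min at room temperature in Tris pH 7.5 buffer with NaCl and MgCl2. Complexes were caught on amylose resin and washed three times; DNA was released with proteinase K, PCR-barcoded and Illumina-sequenced. Binding is reads-per-million enrichment, pull-down over input, with replicates pooled.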
As to “GATGATTGTTCTCCCAGCTGATGAATTGTCAGCGTCGAGTAAACAAATTTTCCTAATCTTTCTGTTCAAGCGCCATCTAC”, the binding signal is 0.925 RPM ratio (pull-down/input). Regarding “GATGATTGTTCTCCCAGCTGATGAATTTGAAGACTCGAGTAAACAAATTTTCCTAATCTTTCTGTTCAAGCGCCATCTAC”, the binding signal is 0.825 RPM ratio (pull-down/input).

On to “GATGATTGTTCTCCCAGCTGATGAATTACACCCGTCGAGTAAACAAATTTTCCTAATCTTTCTGTTCAAGCGCCATCTAC”, for which the binding signal was 1.08 RPM ratio (pull-down/input). The figure for “GATGATTGTTCTCCCAGCTGATGAATTCACCGCGTCGAGTAAACAAATTTTCCTAATCTTTCTGTTCAAGCGCCATCTAC” is 0.877 RPM ratio (pull-down/input); for “GATGATTGTTCTCCCAGCTGATGAATTCACCACATCGAGTAAACAAATTTTCCTAATCTTTCTGTTCAAGCGCCATCTAC” it is 1.12 RPM ratio (pull-down/input). Under “GATGATTGTTCTCCCAGCTGATGAATTAGTAGTATCGAGTAAACAAATTTTCCTAATCTTTCTGTTCAAGCGCCATCTAC” stands 1.2 RPM ratio (pull-down/input). The figure for “GATGATTGTTCTCCCAGCTGATGAATTTACGGGCTCGAGTAAACAAATTTTCCTAATCTTTCTGTTCAAGCGCCATCTAC” is 0.923 RPM ratio (pull-down/input). For the sequence “GATGATTGTTCTCCCAGCTGATGAATTGGCGGAGTCGAGTAAACAAATTTTCCTAATCTTTCTGTTCAAGCGCCATCTAC”, the binding signal was 0.75 RPM ratio (pull-down/input). Under “GATGATTGTTCTCCCAGCTGATGAATTGGGGCGGTCGAGTAAACAAATTTTCCTAATCTTTCTGTTCAAGCGCCATCTAC” stands 0.782 RPM ratio (pull-down/input); under “GATGATTGTTCTCCCAGCTGATGAATTGAGTCCTTCGAGTAAACAAATTTTCCTAATCTTTCTGTTCAAGCGCCATCTAC”, 0.846 RPM ratio (pull-down/input).

Take “GATGATTGTTCTCCCAGCTGATGAATTGTAATAATCGAGTAAACAAATTTTCCTAATCTTTCTGTTCAAGCGCCATCTAC”: the binding signal is 1.35 RPM ratio (pull-down/input). For “GATGATTGTTCTCCCAGCTGATGAATTTGAACGCTCGAGTAAACAAATTTTCCTAATCTTTCTGTTCAAGCGCCATCTAC”, the binding signal is 0.822 RPM ratio (pull-down/input). The figure for “GATGATTGTTCTCCCAGCTGATGAATTAAGATGGTCGAGTAAACAAATTTTCCTAATCTTTCTGTTCAAGCGCCATCTAC” is 0.87 RPM ratio (pull-down/input); for “GATGATTGTTCTCCCAGCTGATGAATTGTCATGGTCGAGTAAACAAATTTTCCTAATCTTTCTGTTCAAGCGCCATCTAC” it is 0.998 RPM ratio (pull-down/input). For the sequence “GATGATTGTTCTCCCAGCTGATGAATTTAGTTAGTCGAGTAAACAAATTTTCCTAATCTTTCTGTTCAAGCGCCATCTAC”, the binding signal was 1.11 RPM ratio (pull-down/input). Under “GATGATTGTTCTCCCAGCTGATGAATTATCCTGGTCGAGTAAACAAATTTTCCTAATCTTTCTGTTCAAGCGCCATCTAC” stands 0.874 RPM ratio (pull-down/input); under “GATGATTGTTCTCCCAGCTGATGAATTCACCCGGTCGAGTAAACAAATTTTCCTAATCTTTCTGTTCAAGCGCCATCTAC”, 0.783 RPM ratio (pull-down/input).

Turning to “GATGATTGTTCTCCCAGCTGATGAATTGTAACTTTCGAGTAAACAAATTTTCCTAATCTTTCTGTTCAAGCGCCATCTAC”, the binding signal is 1.15 RPM ratio (pull-down/input). The figure for “GATGATTGTTCTCCCAGCTGATGAATTCTCGTACTCGAGTAAACAAATTTTCCTAATCTTTCTGTTCAAGCGCCATCTAC” is 0.847 RPM ratio (pull-down/input); for “GATGATTGTTCTCCCAGCTGATGAATTTGAGCAGTCGAGTAAACAAATTTTCCTAATCTTTCTGTTCAAGCGCCATCTAC” it is 0.786 RPM ratio (pull-down/input); for “GATGATTGTTCTCCCAGCTGATGAATTCGAATGCTCGAGTAAACAAATTTTCCTAATCTTTCTGTTCAAGCGCCATCTAC” it is 0.993 RPM ratio (pull-down/input).

For the sequence “GATGATTGTTCTCCCAGCTGATGAATTTTAACGATCGAGTAAACAAATTTTCCTAATCTTTCTGTTCAAGCGCCATCTAC”, the binding signal was 0.89 RPM ratio (pull-down/input). On to “GATGATTGTTCTCCCAGCTGATGAATTTGCGGGGTCGAGTAAACAAATTTTCCTAATCTTTCTGTTCAAGCGCCATCTAC”, for which the binding signal is 0.86 RPM ratio (pull-down/input). Under “GATGATTGTTCTCCCAGCTGATGAATTTACGGCCTCGAGTAAACAAATTTTCCTAATCTTTCTGTTCAAGCGCCATCTAC” stands 1.03 RPM ratio (pull-down/input); under “GATGATTGTTCTCCCAGCTGATGAATTACTTCACTCGAGTAAACAAATTTTCCTAATCTTTCTGTTCAAGCGCCATCTAC”, 1.09 RPM ratio (pull-down/input); under “GATGATTGTTCTCCCAGCTGATGAATTTAAGTCCTCGAGTAAACAAATTTTCCTAATCTTTCTGTTCAAGCGCCATCTAC”, 0.798 RPM ratio (pull-down/input). The figure for “GATGATTGTTCTCCCAGCTGATGAATTTATCCCCTCGAGTAAACAAATTTTCCTAATCTTTCTGTTCAAGCGCCATCTAC” is 0.996 RPM ratio (pull-down/input). Under “GATGATTGTTCTCCCAGCTGATGAATTTGTTTATTCGAGTAAACAAATTTTCCTAATCTTTCTGTTCAAGCGCCATCTAC” stands 2.89 RPM ratio (pull-down/input). As for “GATGATTGTTCTCCCAGCTGATGAATTGTAGAGGTCGAGTAAACAAATTTTCCTAATCTTTCTGTTCAAGCGCCATCTAC”, the binding signal was 0.831 RPM ratio (pull-down/input). The figure for “GATGATTGTTCTCCCAGCTGATGAATTCCGGCGGTCGAGTAAACAAATTTTCCTAATCTTTCTGTTCAAGCGCCATCTAC” is 0.688 RPM ratio (pull-down/input). Under “GATGATTGTTCTCCCAGCTGATGAATTAGCCCCTTCGAGTAAACAAATTTTCCTAATCTTTCTGTTCAAGCGCCATCTAC” stands 0.88 RPM ratio (pull-down/input).
